Test results published in PMC2191977 (The Journal of Experimental Medicine, 1995).
Residue numbers refer to the chain shown, from its start.

Key:
Test in all cases: flow cytometry on cells
B7 K173E = molecular target: T1, B7 K173E (mouse, UniProt Q00609 38-306, K173E)
T1 sequence (looked up): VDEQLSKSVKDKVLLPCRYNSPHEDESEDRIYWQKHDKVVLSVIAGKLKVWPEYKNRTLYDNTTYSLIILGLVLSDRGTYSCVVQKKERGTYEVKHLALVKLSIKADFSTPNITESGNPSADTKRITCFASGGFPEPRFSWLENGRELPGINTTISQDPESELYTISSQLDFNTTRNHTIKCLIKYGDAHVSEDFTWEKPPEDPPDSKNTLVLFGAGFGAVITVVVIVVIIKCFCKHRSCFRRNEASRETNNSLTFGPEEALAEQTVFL

B7 L200A = molecular target: T2, B7 L200A (mouse, UniProt Q00609 38-306, L200A)
T2 sequence (looked up): T1 sequence (looked up) with E136K, L163A

B7 P174A = molecular target: T3, B7 P174A (mouse, UniProt Q00609 38-306, P174A)
T3 sequence (looked up): T1 sequence (looked up) with E136K, P137A

B7 LE/VD (L179V, E180D) = molecular target: T4, B7 LE/VD (L179V, E180D) (mouse, UniProt Q00609 38-306, L179E180>VD)
T4 sequence (looked up): T1 sequence (looked up) with E136K, L142V, E143D

B7 R175S = molecular target: T5, B7 R175S (mouse, UniProt Q00609 38-306, R175>S (CGC>AGC))
T5 sequence (looked up): T1 sequence (looked up) with E136K, R138S

[1] = molecular target: T6, B7 QDP/LEH (Q194L, D195E, P196H) (mouse, UniProt Q00609 38-306, Q194D195P196>LEH)
T6 sequence (looked up): T1 sequence (looked up) with E136K, Q157L, D158E, P159H

B1: CTLA4Ig (Fc fusion)
chain: not shown
B1 was tested, and the “% wild-type B7 binding (normalised to anti-B7 mAb 10.16A.1)” value (B7 K173E) was 98%, the “MF (mean fluorescence, control subtracted)” value (from here on “MF”) (B7 K173E) was 772 MF and the “% wild-type B7 binding (normalised to anti-B7 mAb 10.16A.1)” value (B7 L200A) was 85%. The “MF” value (B7 L200A) was 142 MF, the “% wild-type B7 binding (normalised to anti-B7 mAb 10.16A.1)” value (B7 P174A) was 11% and the “MF” value (B7 P174A) was 61 MF. For the same binder, the “% wild-type B7 binding (normalised to anti-B7 mAb 10.16A.1)” value (B7 LE/VD (L179V, E180D)) was 51%, the “MF” value (B7 LE/VD (L179V, E180D)) was 281 MF and the “% wild-type B7 binding (normalised to anti-B7 mAb 10.16A.1)” value (B7 R175S) was 42%. For the same binder, the “MF” value (B7 R175S) was 334 MF, the “% wild-type B7 binding (normalised to anti-B7 mAb 10.16A.1)” value [1] was 13% and the “MF” value [1] was 36 MF.
